Data taken from PubChem BioAssay AID662 (National Center for Advancing Translational Sciences (NCATS), 2007).
The whole screen tested about 71,000 compounds, of which about 1,800 (2.5%) were called active. The shares of active, inactive and inconclusive entries below differ from those in the screen. Calls follow the shape of the dose curve; as a rule, active = well fitted activation curve with a large enough effect in the signal ratio, with a control signal flat (not every such curve was filed as active); inconclusive = small, poorly fitted or top-dose-only effect, or effect the other way, or a change in a side signal; inactive = flat fitted curve, though single readings scatter; the % refers to the signal ratio. A potency beside an inconclusive call is a rough fit, not a confirmed value.

Assay: Cell signaling CRE-BLA (Fsk stim); as to activity change, negative = inhibition: % of control where 0% means no effect
Settings: CHO CRE-bla reporter (cAMP response element driving beta-lactamase), forskolin EC10, beta-lactamase ratio; activity change, negative = inhibition: at 38.2 µM (top of the series) unless noted
Procedure, shortened: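 Reporter-gene assay: CHO cells with beta-lactamase behind cAMP responsive elements, co-treated with compound and EC10 NKH 477 for 3 hours at 37 degrees Celsius. Activity came from the 460/530 nm CCF4 emission ratio.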
Potency is read from the fitted curve at half-maximal effect; tags tell the direction and shape of the fitted curve.

Compound | activity change, negative = inhibition | Potency
Cc1nnc(S(=O)(=O)c2ccc(N=Nc3c(N)nc(N)nc3N)cc2)s1 | inactive: 7.66% [at 7.6 µM] | 
COc1ccc(C2CC(c3ccc(OC)cc3)n3nc(NC(=O)c4ccco4)nc3N2)cc1 (stereo not drawn) | inactive: -19% | 
CCc1c(C)nc(SCC(=O)Nc2ccc(Br)cc2)[nH]c1=O | inconclusive: 21.8% | 
COc1ccc(N2C(=O)C(CC(=O)Nc3ccccc3)N(Cc3ccc4c(c3)OCO4)C2=O)cc1 (stereo not drawn) |  | inconclusive: 25.1 µM [falling, single point]
CCCOc1ccc(C(=O)Nc2ccc(N(C)C)cc2)cc1 | inconclusive: 2.23% [at 7.6 µM] | 
C=CCNC(=O)C(C#N)c1nc2ccccc2nc1N1CCN(Cc2ccccc2)CC1 (stereo not drawn) |  | inconclusive: 25.1 µM [falling, single point]
N#Cc1cccc(-c2ccc3ncnc(NCc4cccs4)c3c2)c1 |  | inconclusive: 0.501 µM [rising, partial curve]
CC1=C(C(=O)OC2CCCCC2)C(c2ccc(C)o2)C2=C(CC(C)(C)CC2=O)N1 (stereo not drawn) | inactive: 10.1% | 
CCC(C)NC(=O)c1ccccc1C(=O)NC(C)CC (stereo not drawn) |  | inconclusive: 5.01 µM [falling, single point]
O=C(Nc1ccc(S(=O)(=O)N2CCCC2)cc1Cl)C1=COCCO1 | inconclusive: 10.2% | 
O=C(C1=C(O)C(=O)N(Cc2ccco2)C1c1cccnc1)c1cc2ccccc2o1 (stereo not drawn) | inconclusive: -17.4% | 
Cc1nn(Cc2ccc(Cl)c(Cl)c2)c(C)c1NC(=O)c1cc(C2CC2)on1 | inconclusive: -29% | 
COc1ccc(Br)cc1CNC(=O)C1CCCN(c2nc3ccccc3o2)C1 (stereo not drawn) | inconclusive: 4.12% | 
CCC(C)(c1ccc(C(=O)OC)s1)c1ccc(C(=O)OC)s1 | inactive: 3.74% | 
Cc1oc(C)c2c(=O)ccc3c(c12)OC(N)=C(C#N)C3c1ccccc1Cl (stereo not drawn) | inconclusive: -3.22% | 
COc1ccc(Cc2nnc(SCC(=O)c3ccc(OC)cc3)o2)cc1 | inactive: 0.488% | 
COc1ccccc1-c1cc(Nc2ccn[nH]2)ncn1 |  | inconclusive: 12.6 µM [rising, partial curve]
CC(C)OCCCNc1ncnc2c1[nH]c1ccc(F)cc12 |  | inconclusive: 15.8 µM [rising, partial curve]
CC(C)[C@@H](CC(=O)N[C@@H]1CCNC[C@H]1C(=O)N[C@H](CC(=O)N[C@@H](CCC(=O)O)CC(=O)O)Cc1c[nH]c2ccccc12)NC(=O)C[C@H](CO)NC(=O)[C@@H]1CCCC[C@H]1N | inactive: -10.7% | 
NC[C@H](O)C1CCCCCCC1 | inactive: 1.22% | 
Cc1noc(C)c1C(=O)Nc1ccc2c(c1)CCC2 | inactive: 5.47% | 
CC(C)C(NC(=O)c1ccco1)C(=O)NCC(c1ccco1)N1CCCCC1 (stereo not drawn) | inactive: -4% | 
CC(C)CCNC(=O)C(c1ccco1)N(C(=O)Cn1nnc2ccccc21)c1ccc2c(c1)OCO2 (stereo not drawn) | inactive: -15.8% | 
c1cc2[nH]snc2c2nc(C3CC3)nc12 | inactive: 18% | 
O=S(=O)(C/C(=C/CO)S(=O)(=O)c1ccccc1)c1ccccc1 |  | inconclusive: 25.1 µM [rising, single point]
COc1cccc(-c2ccc3ncnc(NCCNC(C)=O)c3c2)c1 | inconclusive: 17.7% | 

Compound | activity change, negative = inhibition | Potency
Cc1nc2cnc(Nc3ccccc3)nc2n(CCc2ccccc2)c1=O |  | active: 15.8 µM
O=C1OC2(c3ccccc3)C3CCCC2C13 | inactive: 3.71% | 
O=C(NCc1ccco1)c1noc2c1CCCCC2 | inconclusive: -16.6% | 
CCOC(=O)c1c(C)[nH]c(C(=O)C(C)OC(=O)c2cccc(OCc3c(C)noc3C)c2)c1C (stereo not drawn) |  | inconclusive: 5.01 µM [falling, single point]
FC(F)(F)c1nnc2ccc(NCn3nnc4ccccc43)nn12 | inconclusive: 18.2% | 
Cc1cc(C)nc(NC(=NCc2ccc3c(c2)OCO3)NC(=O)Nc2ccccc2)n1 |  | inconclusive: 5.01 µM [rising, partial curve]
Cc1ccccc1CS(=O)(=O)Cc1ccc(C(=O)NCc2ccccn2)o1 | inconclusive: -15.3% | 
CCOC(=O)N1CCN(C(=O)c2ccc(CN(c3ccc(C)c(C)c3)S(C)(=O)=O)cc2)CC1 | inconclusive: -16.2% | 
O=C(C1CCCN(S(=O)(=O)c2cccc3cccnc23)C1)N1CCN(c2ccc(F)cc2)CC1 (stereo not drawn) | inconclusive: -20% | 
O=c1c(-c2ccc(Cl)cc2)nc2cnc(N3CCNCC3)nc2n1-c1ccccc1 |  | inconclusive: 0.398 µM [rising, full curve]
Cc1cc(C)nc(SCc2nnc(SCC(=O)OC3CCCCC3)o2)n1 |  | inconclusive: 12.6 µM [rising, single point]
Cc1ccc(C)c(N2CCN(S(=O)(=O)c3ccc4c(c3)CCC(=O)N4)CC2)c1 |  | inconclusive: 15.8 µM [rising, single point]
CCOC(=O)c1ccc(N2C(=O)c3n[nH]c(C)c3C2c2cccnc2)cc1 (stereo not drawn) | inconclusive: 15.9% | 
CCCC(=O)NCCc1c2n(c3ccc(OC)cc13)Cc1ccccc1-2 | inconclusive: 20.2% | 
NC(=O)C[C@@H]1N[C@]2(C(=O)Nc3ccccc32)[C@@H]2C(=O)N(c3cc(C(F)(F)F)ccc3Cl)C(=O)[C@H]12 | inconclusive: 12.7% | 
c1cncc(-c2nc(NCCN3CCOCC3)c3ccccc3n2)c1 |  | active: 10 µM
O=C(c1cccs1)c1no[n+]([O-])c1C(=O)c1cccs1 | inconclusive: 5.17% | 
CN(C)CCn1c(C(=O)Nc2ccccc2)cc2ccccc21 | inactive: -2.51% | 
Cc1ccc(-n2c(=O)cc(N3CC(C)CC(C)C3)[nH]c2=O)cc1 (stereo not drawn) | inconclusive: 19.5% | 
O=C(O)CCC(=O)c1ccc[nH]1 | inactive: -3.31% [at 7.6 µM] | 
CCC(C)NC(=O)CSc1nc2ccc(N3CCOCC3)cc2c(=O)n1CCc1ccccc1 (stereo not drawn) | inactive: -6.7% | 
CCC(Oc1ccccc1)C(=O)Nc1nc2ccccc2[nH]1 (stereo not drawn) | inconclusive: 6.68% | 
COc1ccc(NC(=O)CCC2COc3ccccc3O2)c(OC)c1 (stereo not drawn) |  | inconclusive: 20 µM [rising, single point]
COc1ccc(NC(=O)c2ccccc2NS(C)(=O)=O)cc1OC |  | inconclusive: 12.6 µM [rising, single point]
CCOc1cccc2cc(-c3nnc(-c4ccccc4)o3)c(=O)oc12 |  | inconclusive: 12.6 µM [rising, single point]
COc1ccc(CCN2CC(C(=O)O)CC2=O)cc1 (stereo not drawn) |  | inconclusive: 2 µM [rising, partial curve]

Compound | activity change, negative = inhibition | Potency
CCc1nnc(NC(=O)CCC(=O)NC2CCCCC2)s1 | inconclusive: -0.728% | 
O=c1c(-c2cccs2)nc2cncnc2n1-c1ccccc1 |  | inconclusive: 5.01 µM [rising, partial curve]
COc1ccc(-c2cn3cccnc3n2)cc1NC(=O)c1ccc(Br)o1 |  | active: 2.51 µM
COc1ccc(Nc2nc(N)nc(SCc3nnc(C)s3)n2)cc1 |  | inconclusive: 12.6 µM [rising, single point]
Cc1nn(C)c(C)c1S(=O)(=O)N1CCc2ccccc21 | inconclusive: -24.3% | 
c1ccc(-c2nnc(CSc3nnc(-c4cccs4)o3)o2)cc1 |  | inconclusive: 5.01 µM [falling, single point]
C#C[C@]1(O)CC[C@H]2[C@@H]3CCc4cc(O)ccc4[C@H]3CC[C@@]21C |  | inconclusive: 31.6 µM [falling, single point]
COCCn1c(=O)c(-c2ccccc2)nc2cnc(Nc3ccccc3)nc21 |  | inconclusive: 3.98 µM [rising, partial curve]
CCN(CC)C(c1ccc(C)cc1)c1nnnn1C1CCCCC1 (stereo not drawn) | inactive: 10.2% | 
COc1ccc(C2C(C(=O)N3CCOCC3)CCC(=O)N2c2ccc(OC)cc2)cc1 (stereo not drawn) |  | inconclusive: 0.0794 µM [falling, full curve, poor fit]
O=C1c2ccccc2C(=O)N1CCCCSc1nnc2ccccn12 | inactive: 12.5% | 
CCCn1c2c(c(O)c(C(=O)Nc3nccs3)c1=O)CCCC2 |  | inconclusive: 5.01 µM [rising, single point]
Cc1noc(NS(=O)(=O)c2ccc(N/C=C/C(=O)c3ccc4c(c3)OCO4)cc2)c1C |  | inconclusive: 15.8 µM [rising, single point]
COc1ccc(CCNc2oc(-c3ccccc3OC)nc2C#N)cc1OC |  | inconclusive: 15.8 µM [rising, partial curve]
O=C(c1ccc(COc2ccc3c(c2)CCC3)o1)N1CCN(c2ccccc2)CC1 | inconclusive: 6.17% | 
CCn1cc(C(=O)N2CCn3c(nc4ccccc43)C2)c(=O)c2ccc(C)nc21 |  | inconclusive: 10 µM [rising, partial curve]
N#CC(c1nc2ccccc2nc1N1CCCC1)S(=O)(=O)c1cccs1 (stereo not drawn) | inconclusive: 17.6% | 
CCOCCCn1c(SCC(=O)Nc2ccc(C(N)=O)cc2)nc2ccccc2c1=O | inactive: 15.4% | 
COc1ccc(S(=O)(=O)N(C)CC(=O)NCc2cccnc2)cc1 | inactive: 3.56% | 
N#CCCN(C1CCCCC1)S(=O)(=O)CCOc1ccccc1 | inconclusive: -17.6% [fluorescent] | 
Oc1ccc(Cl)cc1/C=N/c1nc2ccccc2[nH]1 | inconclusive: 26.3% [at 7.6 µM] | 
C/C(=C\C(=O)c1ccccc1)Nc1cccc(O)c1 | inconclusive: 6.23% [at 7.6 µM] | 
COc1cc(-c2nnc(-c3ccncc3)o2)ccc1OCc1ccccc1 | inconclusive: -26.7% | 
COc1cc(S(=O)(=O)N2CCN(c3ccccc3F)CC2)ccc1Cl | inconclusive: -1.18% | 
CCCOc1nc(N)c(C#N)c(-c2ccccc2F)c1C#N |  | inconclusive: 6.31 µM [rising, partial curve]
CCNc1ncc2nc(-c3ccccc3)c(=O)n(-c3ccc(OC)cc3)c2n1 |  | inconclusive: 3.98 µM [rising, partial curve]
